# From PubChem BioAssay AID686979 (National Center for Advancing Translational Sciences (NCATS), 2013)
# Values joined by “and” are separate entries in the source; they are usually repeats but may differ in a detail not shown here. Equal entries are not always repeated. Hit rate of the full screen: of about 420,000 compounds, about 50,000 (12%) were called active. Inconclusive means that the source gave no clear call. Such entries were picked first, then a sample of the others. Calls follow the shape of the dose curve; as a rule, active = well fitted inhibition curve with a large enough effect; inconclusive = small, poorly fitted or top-dose-only effect; inactive = flat fitted curve, though single readings scatter. Potencies beside an inconclusive call are fits to weak or partial responses and may not hold up. The source holds several records for some structures; these can differ, active in one and inactive in another.
# Assay: qHTS for Inhibitors of human tyrosyl-DNA phosphodiesterase 1 (TDP1): qHTS in cells in presence of CPT; also: nearly all actives have a fitted effect of over 55% in size
# Conditions: chicken DT40 Tdp1-/-;hTDP1 cells + 20 nM CPT, ATP luminescence, 48 h; activity change, negative = growth inhibition: at 46.2 µM (top of the series) unless noted
# Procedure, shortened: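 Chicken DT40 Tdp1-/- cells stably complemented with human TDP1 were seeded at 400 cells/well in medium containing 20 nM camptothecin, exposed to pin-transferred compounds, and grown at 37 °C for at least 48 hr. Viability was read as ATP luminescence.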
# % is scaled to controls: 0 for no effect and ±100 for the full control effect; potency is read from the fitted curve at half-maximal effect; tags tell the direction and shape of the fitted curve.
Structure (SMILES),Potency,"activity change, negative = growth inhibition"
O=c1[nH]c2ccccc2n1CCCN1CCC(n2c(=O)[nH]c3cc(Cl)ccc32)CC1,"inconclusive: 25.9 µM [inhibitor, single point] [middle of 4 runs]",–
CN1CCN(c2cc(N3CCCC3)c([N+](=O)[O-])cc2F)CC1,–,inactive: -25.6%
CC(=O)OC1CCC2(C)C(CCC3C4CC(N5CC5)C(C(C)=O)C4(C)CC(=O)C32)C1 (stereo not given),active: 11.6 µM,–
CC(C)[C@H]1C(=O)O[C@H](C(C)C)C(=O)N(C)[C@@H](C(C)C)C(=O)O[C@H](C(C)C)C(=O)N(C)[C@@H](C(C)C)C(=O)O[C@H](C(C)C)C(=O)N1C,active: 3.26 µM,–
CC(=O)OC(C)(C)/C=C/C(=O)C(C)(O)C1C(O)CC2(C)C3CC=C4C(CC(O)C(=O)C4(C)C)C3(C)C(=O)CC12C (stereo not given),active: 0.0259 µM,–
CC(C)n1c(=O)c(C=Nc2cccc([N+](=O)[O-])c2)c(O)n(CCc2ccccc2)c1=O,–,inactive: -22.5%
COc1cc2c(cc1OC)[C@@H]1C(=O)c3ccc4c(c3OC1CO2)CC(C(C)C)O4 (stereo not given in full),active: 0.0651 µM,–
CC(C)[N+](C)(CCC(C(N)=O)(c1ccccc1)c1ccccc1)C(C)C,inactive and active: 7.31 µM,–
Cn1ncc2c(NCc3ccc(F)cc3)ncnc21,"inconclusive: 14.6 µM [inhibitor, partial curve]",–
CCC(Oc1ccc(Cl)cc1)C(=O)OC1CC2CCC(C1)N2C (stereo not given),active: 13 µM,–
O=C1c2ccccc2S(=O)(=O)c2cc(C(=O)N3CCN(c4c(Cl)cncc4Cl)CC3)ccc21,"inconclusive: 25.9 µM [inhibitor, single point]",–
C/C=C1/C[N+]2(C)CCC34C(=C(C=O)[C@H]1C[C@@H]32)Nc1ccccc14 (stereo not given in full),–,inactive: -20%
CCn1c(O)c(C=NCc2cccs2)c(=O)[nH]c1=O,"inconclusive: 29.1 µM [inhibitor, single point]",–
CN(C)c1cccc(CN2CCN(c3ccccc3)CC2)c1,–,inactive: -27.8%
COc1cc(-c2nc3ccc(Cl)cn3c2Nc2ccc3c(c2)OCCO3)ccc1O,"inconclusive: 20.6 µM [inhibitor, partial curve, poor fit]",–
CC(=O)OC1CC(OC(C)=O)[C@]2(C)C(CC(OC(C)=O)[C@]3(C)C2CC[C@@]2(C)C(c4ccoc4)C(=O)C4O[C@]432)C1(C)C (stereo not given in full),"inconclusive: 29.1 µM [inhibitor, single point]",–
COC(=O)C1=C(c2ccc(S(C)(=O)=O)cc2)C[C@@H]2CC[C@H]1N2C(=O)NC1CC1,–,inactive: 4.02%
COc1ccccc1OC(C)C(=O)N1CCC(Cc2ccccc2)CC1 (stereo not given),active: 16.4 µM,–
CC1=C[C@@H]2c3cccc4[nH]cc(c34)C[C@H]2N(C)C1,"inconclusive: 32.6 µM [inhibitor, single point]",–
c1ccc(C2(N3CCCC3)CCCCC2)cc1,"inconclusive: 26.6 µM [inhibitor, single point]",–
O=C1NC(=O)N(c2ccccc2)C(=O)/C1=C\C=C\c1ccccc1,active: 2.06 µM,–
O=C(O)COc1nc(Cl)c(Cl)cc1Cl,"inconclusive: 48.6 µM [inhibitor, single point]",–
COc1ccc(-n2nnnc2C(c2cccc3ccccc23)N2CCC(n3c(=O)[nH]c4ccccc43)CC2)cc1 (stereo not given),"inconclusive: 29.1 µM [inhibitor, single point]",–
COc1cccc(C(=O)C2CCCN(Cc3cccc4c3OCO4)C2)c1 (stereo not given),"inconclusive: 8.2 µM [inhibitor, partial curve]",–

Structure (SMILES),Potency,"activity change, negative = growth inhibition"
C#C[C@]1(O)CC[C@H]2[C@@H]3CCC4=CC(=O)CC[C@]4(C)[C@H]3CC[C@@]21C,inactive,–
[Hg+][c]1ccccc1,active: 0.0891 µM,–
CC(C)OC(=O)OCOP(=O)(CO[C@H](C)Cn1cnc2c(N)ncnc21)OCOC(=O)OC(C)C,active: 8.41 µM,–
COP(=S)(OC)SCn1nnc2ccccc2c1=O,"inconclusive: 23.1 µM [inhibitor, single point] and inconclusive: 29.1 µM [inhibitor, single point]",–
CN(C(=O)Cc1ccc2c(c1)OCO2)C1CCCN(Cc2ccccc2F)C1 (stereo not given),"inconclusive: 29.1 µM [inhibitor, single point]",–
CN(N=Cc1ccc([N+](=O)[O-])cc1)c1ccccn1,"inconclusive: 23.1 µM [inhibitor, single point]",–
Cc1ccc(OCC(=O)N2CCN(Cc3ccc4c(c3)OCO4)CC2)cc1C,–,inactive: -6.26%
CNC(=O)Oc1ccc2c(c1)C1(C)CCN(C)C1N2C (stereo not given),active: 23.7 µM,–
CCOC(=O)[C@]12Cc3cc(Cl)ccc3[C@H]1N(C)C(=O)c1ccccc12,"inconclusive: 29.1 µM [inhibitor, single point]",–
O=C(CCS(=O)(=O)c1ccccc1)Nc1nnc(-c2ccco2)o1,"inconclusive: 29.1 µM [inhibitor, single point]",–
COC(=O)C1=C(c2ccc(F)cc2F)C[C@@H]2CC[C@H]1N2C(=O)N1CCCCC1,active: 13 µM,–
O=C1NCN(c2ccccc2)C12CCN(C(c1nnnn1Cc1ccccc1)C1CC1)CC2 (stereo not given),"inconclusive: 23.1 µM [inhibitor, single point]",–
CCCCOCCCn1c(N)c(C(=O)OCCOC)c2nc3ccccc3nc21,"inconclusive: 16.4 µM [inhibitor, partial curve]",–
O=c1[nH]c(=S)[nH]c(O)c1/C=C1\C=Nc2ccccc21,active: 7.31 µM,–
CCN(CC)CCCNC(=O)c1c(O)c2ccccc2n(Cc2ccccc2)c1=O,active: 18.4 µM,–
COC(=O)COc1ccc(Cl)cc1Cl,–,inactive: 4.67%
c1ccc2c(c1)Sc1ccccc1N2CC1CN2CCC1CC2 (stereo not given),inactive and active: 2.66 µM,–
Cc1ccc(OP(=O)(Nc2cccc(C)c2)Oc2ccc(C)cc2)cc1,"inconclusive: 20.6 µM [inhibitor, single point]",–
COc1ccc(OC)c(N2C(=O)NC(=O)/C(=C/c3ccc([N+](=O)[O-])s3)C2=O)c1,active: 16.4 µM,–
CC(=O)N1Cc2cnnn2-c2ccccc2C1(C#N)Cc1ccccc1 (stereo not given),–,inactive: -3.16%
C#CCN(C)C(C)Cc1ccccc1 (stereo not given),–,inconclusive: -31.3% [inhibitor]
O=C1NC(=O)C(CCc2ccncc2)(CCc2ccncc2)C(=O)N1Cc1ccc(F)cc1,active: 14.6 µM,–
CCOC(=O)c1nc2ccccc2c(=O)n1-c1ccc(C)cc1,"inconclusive: 23.1 µM [inhibitor, single point]",–
O=C1CN(C(=O)COC(=O)Cc2ccccc2)c2ccccc2N1,"inconclusive: 16.4 µM [inhibitor, single point]",–

Structure (SMILES),Potency,"activity change, negative = growth inhibition"
CCOCCN1CCC(OC(C)=O)C(C)C1 (stereo not given),–,inactive: 8.71%
C[N+]1(CCC(C(N)=O)(c2ccccc2)c2ccccc2)CCCCC1,–,inactive: -7.39%
COc1ccc(C(=O)C(C)(C)NO)cc1,"inconclusive: 20.6 µM [inhibitor, single point]",–
Nc1ccc2ccc3cccc[n+]3c2c1,"inconclusive: 25.9 µM [inhibitor, partial curve]",–
N#Cc1cccc(NC(=O)CSc2nc3c(cc2C#N)N2CCC3CC2)c1,"inconclusive: 20.6 µM [inhibitor, single point]",–
CC/C(=N\Nc1ccccc1)c1c(O)[nH]c(=O)[nH]c1=O,–,inactive: -8.22%
Cc1nc2cc(-c3ccc(Cl)cc3)nn2c(C)c1CCC(=O)N1CCC2(CC1)OCCO2,active: 23.1 µM,–
CC[C@H]1C[C@H]2[C@@H]3CCC4=CC(=O)CC[C@@H]4[C@H]3CC[C@]2(C)[C@H]1O,"inconclusive: 3.76 µM [inhibitor, partial curve]",–
CCOc1ccc(CC(=O)Nc2ccc3c(c2)N(C)C(=O)c2ccccc2S3)cc1OCC,"inconclusive: 25.9 µM [inhibitor, single point]",–
CCOC(=O)C1(c2ccccc2)CCN(CCc2ccc(NC(=O)CCC(=O)O)cc2)CC1,–,inactive: 35.9%
COC(=O)C1=C(c2ccc3ccccc3c2)C[C@@H]2CC[C@H]1N2C(=O)N1CCOCC1,"inconclusive: 7.31 µM [inhibitor, full curve, poor fit]",–
COC(=O)C1=C(c2ccc(OC)c(OC)c2)C[C@@H]2CC[C@H]1N2C(=O)NCc1cccc2ccccc12,"inconclusive: 4.11 µM [inhibitor, full curve, poor fit]",–
CCOC(=O)c1c(N)n(CCCOC(=O)c2ccco2)c2nc3ccccc3nc12,active: 11.6 µM,–
O=C(OC1CC2CCC(N2)C1C(=O)O)c1ccccc1 (stereo not given),–,inactive: 20.3%
COc1ccc(OC(=O)N(C)C[C@H]2OCc3cnnn3CCCC(=O)N([C@H](C)CO)C[C@@H]2C)cc1,–,inactive: 3.79%
CCC(=NCc1cc(OC)cc(OC)c1)c1c(O)n(C2CCCCC2)c(=O)[nH]c1=O,"inconclusive: 29.1 µM [inhibitor, single point]",–
O=C(CSc1nc2ccccc2c(=O)n1-c1ccc(Cl)c(Cl)c1)Nc1ccc2c(c1)CCC2,"inconclusive: 25.9 µM [inhibitor, single point]",–
CC(=O)NC(Cc1ccc(N(CCCl)CCCl)cc1)C(=O)NC(CC(C)C)C(=O)O (stereo not given),"inconclusive: 29.1 µM [inhibitor, single point]",–
O=C(Nc1cccc(Cl)c1)OCC#CCN1CCCC1,"inconclusive: 6.51 µM [inhibitor, partial curve]",–
CCn1c(=O)cc(SCC(=O)N2CCC3(CC2)OCCO3)c2ccccc21,"inconclusive: 35.5 µM [inhibitor, single point]",–
Cc1cc(Br)c(NC(=O)CN2CC=C(c3ccccc3)CC2)c(Br)c1,–,inactive: 1.08%
Cc1ccc(C(C)(C)NC(=O)C2CCC(=O)N(C3CCCCCC3)C2)cc1 (stereo not given),"inconclusive: 25.9 µM [inhibitor, single point]",–
